Hit rate of the full screen: of about 43,000 compounds, about 200 (0.47%) were called active. Roughly 12% stayed inconclusive and do not appear here. The call rests on the fitted dose curve; in most records, active means well fitted cell-killing curve with a large enough effect; inconclusive means small, poorly fitted or top-dose-only effect, or effect the other way; inactive means flat fitted curve, though single readings scatter. The list shows a part of the results.
On the % scale 0 is the no-effect control and ±100 the full control effect.

The assay in a line: Cell viability qHTS assay in S16 Pmp22-F2sN cells. Further: nearly all actives have a fitted effect of over 65% in size. The conditions noted are these: S16 Pmp22-F2sN Schwann cells (luciferase reporters placed in the Pmp22 gene) viability, CellTiter-Glo, 24 h; series mostly up to 57.5 µM; activity change, negative = cytotoxicity: at the top concentration. The procedure, abridged: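 CellTiter-Glo counter-screen, qHTS, 1536-well. Cells: S16(c9) Pmp22-F2sN, 500-1,000/well in DMEM + 10% FBS. Cpd 23 nL pin transfer, 24 h, 37C/5% CO2. Read: luminescence, CCD imager.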
In general terms: Quantitative high-throughput screening tests each substance at several concentrations.
As for `CC1CCn2c(nc3cc(C(=O)NCc4ccc(OC(C)C)cc4)ccc32)C1` (configuration not stated), the “activity change, negative = cytotoxicity” value was inactive: 0.734%.
For `COc1cccc(N2CCN(C(=O)CCCCCn3c(=O)[nH]c4ccccc4c3=O)CC2)c1`, the “activity change, negative = cytotoxicity” value was inactive: 6.93%.
As for `CCOc1ccccc1NC(=O)Cn1nnc(C(=O)NCc2ccc(F)cc2)c1N`, the “activity change, negative = cytotoxicity” value is inactive: -0.126%.
The result for `CN(C)CCNC(=O)C(=O)NCC(c1cccnc1)N1CCN(c2ccc(F)cc2)CC1` (configuration not stated) reads inactive: 2.87%; that for `COc1ccc(Cn2ccc3nc(C)c(C(=O)N4CCN(c5ccc(OC)cc5)CC4)cc3c2=O)cc1`, inactive: 0.353%; that for `Cc1ccc(S(=O)(=O)N(C)Cc2nc(-c3ccccc3)oc2C)cc1`, inactive: -9.52%.
With `CCc1nc2nc(C)c(NS(=O)(=O)c3ccc(C)cc3)c(=O)n2[nH]1` the figure was inactive: 0.672%.
The result for `Cc1ccc(S(=O)(=O)NCc2nc3cccnc3n2Cc2ccccc2Cl)c(C)c1` reads inactive: -15.4%; that for `CCc1nnc2c(Nc3ccc(N(CC)CC)cc3C)nc3ccccc3n12`, inactive: -10.1%.
`Cc1cc(S(=O)(=O)Nc2ccc(C(=O)O)cc2)c(C)c(S(=O)(=O)c2ccc(Cl)cc2)c1`: the “activity change, negative = cytotoxicity” value is inactive: 12.3%.
`COc1cccc(NS(=O)(=O)c2ccc3c(c2)N(C)C(=O)CC(=O)N3C)c1`: the “activity change, negative = cytotoxicity” value is inactive: 4.51%.
As to `COc1ccc(C)cc1NC(=O)c1cn(C)c(=O)c2cc(OC)c(OC)cc12`, the “activity change, negative = cytotoxicity” value is inactive: -1.21%.
As to `CCCc1nn2c(=O)cc(COC(=O)c3ccc(NC(=O)C4CCCCC4)cc3)nc2s1`, the “activity change, negative = cytotoxicity” value is inactive: 17.3%.
Consider `CC(C)Cc1nn2c(=O)cc(COC(=O)c3ccccc3NC(=O)C3CCCCC3)nc2s1`, for which the “activity change, negative = cytotoxicity” value is inactive: 0.536%.
As to `CC(=O)c1ccccc1OCC(O)Cn1c(CO)nc2ccccc21` (configuration not stated), the “activity change, negative = cytotoxicity” value was inactive: -0.232%.
For `O=C(Nc1ccc(Br)cc1F)N1CC=C(c2c[nH]c3ccccc23)CC1`, the “activity change, negative = cytotoxicity” value was inactive: -10.1%.
Turning to `COc1ccccc1NC(=O)CN1C(=O)c2ccccc2Sc2ccc(C(=O)N3CCCC3)cc21`, the “activity change, negative = cytotoxicity” value is inactive: 1.51%.
With `CCc1ccccc1NC(=O)N1CC(C)Sc2ccccc21` (configuration not stated) the figure was inactive: -17%; with `Cc1cccc(Cn2cc(C(=O)Nc3cc(F)ccc3F)ccc2=O)c1`, inactive: 2.31%; with `COc1ccc(CNC(=O)CN2C(=O)CCn3nc(-c4ccccc4)cc32)c(OC)c1`, inactive: 10.1%.
The result for `COc1ccc(S(=O)(=O)Nc2cc3c(C(=O)OC(C)C)c(C)oc3c3ccccc23)cc1` reads inactive: -20.8%.
For the compound `Cc1cc(OCC(O)CN2CCN(c3cccc(Cl)c3)CC2)ccc1Cl` (configuration not stated), the “activity change, negative = cytotoxicity” value is inactive: 8.67%.
Regarding `COc1ccc(C(=O)c2sc3nc(-c4ccc(F)cc4)ccc3c2N)cc1`, the “activity change, negative = cytotoxicity” value was inactive: -7.5%.
With `COc1ccc(-c2nc(Cn3c(SCc4cccc(C(F)(F)F)c4)nc4cccnc43)c(C)o2)cc1OC` the figure was inactive: 1.46%; with `Cc1oc2ncn(C)c(=O)c2c1C(=O)NCc1ccc(Cl)cc1`, inactive: -21.6%.
With `Cn1c(Nc2ccc(Cl)cc2)cc(=O)n(C)c1=O` the figure was inactive: 14.2%.
The result for `CC1=C(C(=O)Nc2ccc(C)cc2C)C(c2ccc(O)cc2)n2nc(SCC(=O)c3ccc(C)cc3)nc2N1` (configuration not stated) reads inactive: -8.15%.

The values are drawn from PubChem BioAssay AID1508642 (National Center for Advancing Translational Sciences (NCATS), 2021).
